From PubChem BioAssay AID1030 (National Center for Advancing Translational Sciences (NCATS), 2008)
Out of some 220,000 compounds screened, about 16,000 (7.3%) were called active. The shares of active, inactive and inconclusive entries below differ from those in the screen. The call rests on the fitted dose curve; in most records, active means well fitted inhibition curve with a large enough effect (not every such curve was filed as active); inconclusive means small, poorly fitted or top-dose-only effect, or another doubt; inactive means no such curve, though single readings can be large or run the other way. Where the call is inconclusive, the potency comes from a doubtful curve fit.

Biological target: Aldehyde dehydrogenase 1A1 (Homo sapiens) (UniProt P00352)
Experiment: qHTS Assay for Inhibitors of Aldehyde Dehydrogenase 1 (ALDH1A1);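 on activity, negative = inhibition: plate controls were no enzyme wells and a reference inhibitor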
Conditions: Purified ALDH1A1, NADH fluorescence, propionaldehyde substrate; series mostly up to 75.3 µM; activity, negative = inhibition: at the top concentration
Potency means the concentration at half of the fitted maximal effect; tags describe the fitted curve by direction and shape.

UniProt P00352, sequence (P00352 whole entry, looked up): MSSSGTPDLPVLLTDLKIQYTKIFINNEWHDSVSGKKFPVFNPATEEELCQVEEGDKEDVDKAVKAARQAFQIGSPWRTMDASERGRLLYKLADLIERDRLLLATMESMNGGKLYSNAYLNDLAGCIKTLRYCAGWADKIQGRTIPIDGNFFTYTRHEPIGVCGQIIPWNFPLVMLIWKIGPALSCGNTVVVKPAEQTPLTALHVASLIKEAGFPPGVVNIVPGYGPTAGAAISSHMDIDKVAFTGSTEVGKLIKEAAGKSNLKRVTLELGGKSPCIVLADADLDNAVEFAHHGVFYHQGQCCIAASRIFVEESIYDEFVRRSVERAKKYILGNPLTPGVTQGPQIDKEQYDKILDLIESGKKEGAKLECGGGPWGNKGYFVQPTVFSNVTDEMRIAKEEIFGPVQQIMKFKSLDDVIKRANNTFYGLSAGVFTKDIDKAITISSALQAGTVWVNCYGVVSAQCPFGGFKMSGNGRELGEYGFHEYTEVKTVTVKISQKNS

Potency, inconclusive:
CC(C)(CO)NS(=O)(=O)c1ccc2c(c1)C(=NO)c1cc(S(=O)(=O)NC(C)(C)CO)ccc1-2 35.5 µM [inhibitor, partial curve, poor fit]
O=C(CON=C1c2ccccc2-c2ccccc21)NC12CC3CC(CC(C3)C1)C2 39.8 µM [inhibitor, single point]
COc1ccc(-n2c(O)c(/C=N/NS(=O)(=O)c3cccc([N+](=O)[O-])c3)c3ccccc3c2=O)cc1OC 25.1 µM [inhibitor, partial curve]
C=CCOc1ccc(CNc2ccc3[nH]c(=O)[nH]c3c2)cc1OC 28.2 µM [inhibitor, partial curve]
COc1c(N2CCNC(C)C2)c(F)cc2c(=O)c(C(=O)O)cn(C3CC3)c12 (stereo not given) 28.2 µM [inhibitor, partial curve]
CCOC(=O)c1ccc(OCc2c(C)noc2C)cc1 28.2 µM [inhibitor, single point]
Cc1ccc(-n2nnnc2-c2cnc(N3CCCC3)nc2C(F)(F)F)cc1 28.2 µM [inhibitor, partial curve]
CCCCn1c(-c2ccco2)nc2oc3ccccc3c(=O)c2c1=O 17.8 µM [inhibitor, partial curve]
CCOC(=O)CSc1nc2cc(OC)ccc2cc1C#N 39.8 µM [inhibitor, single point]
COC(=O)c1cnn(-c2cc(Oc3ccccc3)ncn2)c1N 20 µM [inhibitor, single point]
OC[C@@H]1[C@@H](c2ccccc2)C(c2ccccc2)=NN1c1ccccc1 31.6 µM [inhibitor, partial curve]
Cc1ccc(-c2[nH]n3c(=O)c4c(nc3c2C)CCCC4)cc1 22.4 µM [inhibitor, partial curve]
Cc1nc(N/C(N)=N/S(=O)(=O)c2ccc([N+](=O)[O-])cc2)nc2ccccc12 35.5 µM [inhibitor, single point]
N#Cc1c2c(c(-c3ccco3)[nH]c1=O)CCCC2 39.8 µM [inhibitor, single point]
Cc1cccc(C)c1N(CC(=O)Nc1cc(Cl)ccc1Oc1ccccc1)S(C)(=O)=O 44.7 µM [inhibitor, single point]
CC12C(=O)N(c3ccccc3C(=O)O)C(=O)C1C1C=CC2C1 (stereo not given) 12.6 µM [inhibitor, partial curve]
Cc1onc(-c2ccccc2)c1C(=O)Nc1ccc(S(=O)(=O)NC(C)(C)C)cc1 3.55 µM [inhibitor, single point]
COc1c(C)cc(Br)cc1C(=O)Nc1ccccc1N1CCN(C(=O)c2ccccc2)CC1 39.8 µM [inhibitor, single point]
CC1CCCN(S(=O)(=O)c2ccc(C(=O)Nc3ccccc3-c3nc4ccccc4[nH]3)cc2)C1 (stereo not given) 28.2 µM [inhibitor, partial curve]
NS(=O)(=O)c1ccc(NC(=O)CSc2nnc(Cc3cccs3)n2-c2ccccc2)cc1 20 µM [inhibitor, single point]
O=C(c1ccco1)N1CCN(Cc2cccc(F)c2)CC1 39.8 µM [inhibitor, single point]
O=C(O)c1ccc2c(c1)C(=O)/C(=C\c1ccco1)C2=O 39.8 µM [inhibitor, single point]
COCCNc1oc(-c2ccc(Cl)cc2)nc1C#N 28.2 µM [inhibitor, partial curve]
CN(C)c1ccc(NC(=O)CCn2c(=S)oc3ccccc32)cc1 20 µM [inhibitor, single point]
CN(C)N1C(N)=C(C#N)C(c2cccs2)C2=C1CCCC2=O (stereo not given) 12.6 µM [inhibitor, single point]
Cc1cccc(NC(=O)CS(=O)(=O)c2cn(CC(=O)N3CCOCC3)c3ccccc23)c1 37.7 µM [inhibitor, single point]
Cc1cc(NC(=O)c2cc3nc(C4CC4)cc(C(F)(F)F)n3n2)no1 35.5 µM [inhibitor, single point]
O=C(CCNC(=O)Cn1ccc2ccccc2c1=O)NCCCN1CCN(c2ccc(F)cc2)CC1 28.2 µM [inhibitor, single point]

Potency, active:
O=C(NN1C(=O)C2C3C=CC(O3)C2C1=O)c1ccncc1 (stereo not given) 17.8 µM
O=c1cc(CO)oc(C(Nc2ccccn2)c2ccccc2Cl)c1O (stereo not given) 5.01 µM
COc1ccc(CN2C(=O)NC(C)(c3ccc(C)cc3)C2=O)cc1F (stereo not given) 0.355 µM
CCOc1ccccc1-n1nnnc1SCc1nc2ccccc2s1 10 µM
N#C/C(=C\c1ccccc1[N+](=O)[O-])c1nc(C2CC2)cs1 10 µM

activity, negative = inhibition, inactive:
O=C(c1ccc(F)cc1)C1CCN(C(=S)Nc2ccccc2Cl)CC1 -8.77%
CCOC(=O)c1c[nH]n(-c2ccccc2)c1=O 2.67%
Cc1cc(C(=O)Nc2cccc(C(=O)O)c2)c(C)o1 -4.09%
Fc1ccc(-c2nc3cnccn3c2NC2CCCC2)cc1 5.23%
CC(C)(C)OC(=O)NCCCCC1=CC2=CC(=O)C(C)(OC(=O)C3CCCC3)C(=O)C2=CO1 (stereo not given) 16.9%
COC(=O)C1=C(C)N(C)C(=S)NC1c1ccc(OC)cc1OC (stereo not given) 1.55%
COc1cc(C(=O)Oc2ccccc2/C=N/NC(=O)c2ccc(Cl)cc2Cl)cc(OC)c1OC 9.8%
COc1ccc(C(=O)O/N=C/c2c(C(F)(F)F)nn(C)c2SCc2ccccc2Cl)cc1 -2.66%
Cc1cc(C)nc(NS(=O)(=O)c2ccc(N/C=C\C(=O)c3ccc(Cl)cc3)cc2)n1 -7.08%
COCc1cc(/C=N\NC(=O)Cc2ccc(OC)cc2)ccc1OC -7.81%
CCCOc1ccc(N2CC(C(=O)NCCc3ccc(OC)c(OC)c3)CC2=O)cc1 (stereo not given) 6.93%
O=C(NCCn1ccc2ccccc21)C1CCCCC1 -7.84%
